Among all 310,000 compounds or so, about 14,000 (4.5%) showed an effect of 50% or more. Effects have a minus sign here. The list shows a part of the results.
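Also: peak tail current of the secondary pulse compared with the same well before compound.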

The assay deals with human ether-à-go-go-related gene (hERG) potassium channel (human, UniProt Q12809). The assay can be described thus: primary screen, population patch clamp on CHO cells stably expressing hERG.
human ether-à-go-go-related gene (hERG) potassium channel, sequence (Q12809 whole entry, looked up): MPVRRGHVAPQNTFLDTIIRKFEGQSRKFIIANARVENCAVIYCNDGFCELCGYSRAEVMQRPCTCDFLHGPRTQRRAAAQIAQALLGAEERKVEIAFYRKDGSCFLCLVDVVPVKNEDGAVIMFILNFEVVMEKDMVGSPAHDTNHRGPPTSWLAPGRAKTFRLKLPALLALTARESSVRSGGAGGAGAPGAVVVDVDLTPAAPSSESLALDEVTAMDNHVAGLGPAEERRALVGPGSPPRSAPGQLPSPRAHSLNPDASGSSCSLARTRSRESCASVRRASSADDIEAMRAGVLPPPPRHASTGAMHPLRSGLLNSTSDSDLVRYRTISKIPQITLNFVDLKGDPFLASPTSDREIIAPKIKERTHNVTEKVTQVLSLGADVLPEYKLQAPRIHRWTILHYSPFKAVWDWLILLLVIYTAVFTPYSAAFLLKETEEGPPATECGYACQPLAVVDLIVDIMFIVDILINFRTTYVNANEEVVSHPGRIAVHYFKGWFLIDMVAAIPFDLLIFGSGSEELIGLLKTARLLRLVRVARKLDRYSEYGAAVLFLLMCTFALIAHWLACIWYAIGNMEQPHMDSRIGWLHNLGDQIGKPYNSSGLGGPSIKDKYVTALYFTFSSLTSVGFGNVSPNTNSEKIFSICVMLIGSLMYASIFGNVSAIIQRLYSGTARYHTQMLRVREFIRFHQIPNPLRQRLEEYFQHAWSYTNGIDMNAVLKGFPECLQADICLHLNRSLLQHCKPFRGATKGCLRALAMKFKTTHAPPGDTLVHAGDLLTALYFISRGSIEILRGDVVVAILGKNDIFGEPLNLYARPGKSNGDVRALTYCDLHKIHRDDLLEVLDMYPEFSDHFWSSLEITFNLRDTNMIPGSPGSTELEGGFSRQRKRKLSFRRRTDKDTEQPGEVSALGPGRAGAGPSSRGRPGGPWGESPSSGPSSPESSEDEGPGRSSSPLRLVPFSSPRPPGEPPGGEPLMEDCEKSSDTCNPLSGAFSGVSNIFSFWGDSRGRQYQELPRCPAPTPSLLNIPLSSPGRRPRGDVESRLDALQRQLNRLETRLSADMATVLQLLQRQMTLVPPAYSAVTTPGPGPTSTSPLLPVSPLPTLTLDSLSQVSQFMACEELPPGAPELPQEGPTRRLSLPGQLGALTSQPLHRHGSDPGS
`Cc1cc(C)n(-c2ccc(C(=O)OCC(=O)NCc3ccco3)cc2)n1`: the “hERG current change (%, negative = inhibition) at 10uM” value came to 0.144%.
With `O=C(CNS(=O)(=O)c1cccs1)NCc1ccccc1`, the “hERG current change (%, negative = inhibition) at 10uM” value is 12.6%.
Turning to `O=C(c1ccc(-n2cncn2)c([N+](=O)[O-])c1)N1CCN(S(=O)(=O)c2ccccc2Br)CC1`, the “hERG current change (%, negative = inhibition) at 10uM” value is given as -70.3%.
As to `NC(=S)N=Nc1c(O)n(CCCl)c2ccc(Cl)cc12`, the “hERG current change (%, negative = inhibition) at 10uM” value was 9.1%.
On to `Cc1ccc(S(=O)(=O)N2CCN(Cc3csc(C)n3)CC2)cc1`, for which the “hERG current change (%, negative = inhibition) at 10uM” value is 6.87%.
As for `Cc1cccc(CSc2ccc3nnc(-c4ccccn4)n3n2)c1`, the “hERG current change (%, negative = inhibition) at 10uM” value is listed as -75.7%.
Consider `COc1cccc2[nH]c3c(=O)n(CCN(C)C)cnc3c12`, for which the “hERG current change (%, negative = inhibition) at 10uM” value is -7.55%.
With `CC(C(=O)Nc1ccc(C#N)cc1)N(C)CC(=O)Nc1cccc(F)c1` (centres unmarked), the “hERG current change (%, negative = inhibition) at 10uM” value was -64.7%.
With `COC(=O)NC(C)N1C(=O)C2C3C=CC(C3)C2C1=O` (centres unmarked), the “hERG current change (%, negative = inhibition) at 10uM” value amounted to 5.08%.
With `O=S(=O)(c1ccc(F)cc1)N1CCN(S(=O)(=O)c2cccs2)CC1`, the “hERG current change (%, negative = inhibition) at 10uM” value is 2.81%.
As for `CN1CCN(C(=S)SCC(=O)Nc2ccc(Cl)cc2C(=O)c2ccccc2)CC1`, the “hERG current change (%, negative = inhibition) at 10uM” value is reported as -29.8%.
As to `Cc1cccc2sc(NNC(=O)C3=COCCO3)nc12`, the “hERG current change (%, negative = inhibition) at 10uM” value is -24.1%.
For `Cc1ccc2c3c1C(=O)C(=O)N3C(C)(C)CC2C` (centres unmarked) the value was -28.4%; for `O=C(CCN1C(=O)c2ccccc2C1=O)NCc1ccc(Cl)cc1`, -16.9%.
As for `Cc1cccc(-c2nc(S(=O)(=O)c3ccccc3)c(N3CCOCC3)o2)c1`, the “hERG current change (%, negative = inhibition) at 10uM” value is given as -25.4%.
In the case of `Cc1cc(=O)[nH]c2n[nH]c(-c3ccccc3)c12`, the “hERG current change (%, negative = inhibition) at 10uM” value is on record as 4.19%.
As for `CN1CCc2c(sc3c2C(=O)NC(c2cccs2)N3)C1` (centres unmarked), the “hERG current change (%, negative = inhibition) at 10uM” value is -16.7%.
`CN(CC(=O)NCC1CCCO1)S(=O)(=O)c1cc(Cl)ccc1Cl` (centres unmarked): the “hERG current change (%, negative = inhibition) at 10uM” value was -0.783%.
As for `Cn1c(=O)c2nc(Cl)c(-c3ccccc3)nc2n(C)c1=O`, the “hERG current change (%, negative = inhibition) at 10uM” value is recorded as -3.88%.
On to `COc1ccc(CNC(=O)CSc2nnc(C3CC3)n2C2CC2)cc1`, for which the “hERG current change (%, negative = inhibition) at 10uM” value is given as -9.26%.
Regarding `Cc1ccc(S(=O)(=O)N2CCN(C(=O)COC(=O)Cc3cccc(C(F)(F)F)c3)CC2)c(C)c1`, the “hERG current change (%, negative = inhibition) at 10uM” value worked out at 5.7%.
Turning to `Nc1nccnc1C(=O)OCC(=O)c1ccc[nH]1`, the “hERG current change (%, negative = inhibition) at 10uM” value is given as -0.119%.
Take `COc1cc(NC(=O)c2cccnc2Sc2ccc(Cl)cc2)cc(OC)c1OC`: the “hERG current change (%, negative = inhibition) at 10uM” value is on record as 11.7%.
With `Cc1cc(C)n2nc(SC(C)C(=O)NC3CCCCC3C)nc2n1` (centres unmarked), the “hERG current change (%, negative = inhibition) at 10uM” value is on record as -11.2%.
`COC(=O)C1=C(C)Nc2nnnn2C1c1cccs1` (centres unmarked): the “hERG current change (%, negative = inhibition) at 10uM” value is -4.4%.
On to `CCOc1ccc(C2/C(=C(/O)c3ccc4c(c3)CC(C)O4)C(=O)C(=O)N2CCCn2ccnc2)cc1` (centres unmarked), for which the “hERG current change (%, negative = inhibition) at 10uM” value was found to be 6.06%.
As to `O=C(CC(=O)NCc1ccccc1)NCc1ccccc1`, the “hERG current change (%, negative = inhibition) at 10uM” value was 12.1%.
Turning to `O=C(c1oc(=O)c2ccccc2c1-c1ccccc1)N1CCN(C2CCCCC2)CC1`, the “hERG current change (%, negative = inhibition) at 10uM” value is reported as -61.6%.
Regarding `O=C(NCCc1ccc(Cl)cc1)C1CCC(CNc2c(N3CCCCC3)c(=O)c2=O)CC1` (centres unmarked), the “hERG current change (%, negative = inhibition) at 10uM” value is listed as -15.3%.
On to `Cc1ccc(OCCCCN2CCCCC2)c(Br)c1.O=C(O)C(=O)O`, for which the “hERG current change (%, negative = inhibition) at 10uM” value is on record as -62.6%.
In the case of `C[C@@H](CN=[N+]=[N-])CN1CC[C@H](O)CCC1=O`, the “hERG current change (%, negative = inhibition) at 10uM” value is recorded as 7.09%.
`CC(=O)N(C)c1ccc(NC(=O)Nc2ccc(Cl)cc2)cc1`: the “hERG current change (%, negative = inhibition) at 10uM” value is reported as -7.31%.
Turning to `COC(=O)C1CCN(C(=O)COC(=O)CSc2ccc(C(N)=O)cc2[N+](=O)[O-])CC1`, the “hERG current change (%, negative = inhibition) at 10uM” value came to 8.66%.
For `CCc1nc(N2CCC3(CC2)OCCO3)c2nnn(Cc3ccccc3Cl)c2n1` the value was -8.52%.
For `O=C(CN1CCN(C(=O)C2COc3ccccc3O2)CC1)Nc1ccc(F)cc1` (centres unmarked) the value was -75.7%.
With `Cc1cc(=O)oc2c(C)c(OCC(=O)N3CCC(C(=O)O)(c4ccccc4)CC3)ccc12`, the “hERG current change (%, negative = inhibition) at 10uM” value is 20%.
With `C[C@H](NC(=O)C1CCN(S(=O)(=O)c2ccccc2)CC1)C(=O)NCc1ccco1` the figure was 25.5%.
With `COc1cc(C(=O)NCC(c2ccc(F)cc2)N2CCOCC2)ccc1OCc1ccccc1Cl` (centres unmarked) the figure was -40.9%; with `Cc1ccc(S(=O)(=O)NCC(=O)N(CC2CCCO2)C(C(=O)NC2CCCC2)C(C)C)cc1` (centres unmarked), -1.47%.
Take `O=C(Nc1cccc(NC(=O)c2ccco2)c1)c1cnccn1`: the “hERG current change (%, negative = inhibition) at 10uM” value is reported as -11.2%.
For `Cc1ccccc1NC(=O)Cn1nc(-c2ccc(Cl)s2)ccc1=O` the value was 13.6%; for `CCn1c2ccccc2c2cc(N=C3SC(CC(=O)Nc4ccccc4OC)C(=O)N3C)ccc21` (centres unmarked), 8.15%.
Take `CCCCCCCCCCCCN1[C@@H](CC(=O)O)c2cc(F)ccc2S1(=O)=O`: the “hERG current change (%, negative = inhibition) at 10uM” value is recorded as -4.69%.
For the compound `COc1ccc(OC)c(CN2CCN(CC(=O)Nc3ccccc3C(=O)NC3CC3)CC2)c1`, the “hERG current change (%, negative = inhibition) at 10uM” value is listed as -82.5%.
With `Cc1ccc(Cn2nc(C)c(C(=O)NCC(c3cccs3)N3CCOCC3)c2Cl)cc1` (centres unmarked) the figure was -16.4%; with `Cc1cc(C)c2c(n1)sc1c(-c3ccccc3)c(C#N)c(N)nc12`, -6.52%; with `Cc1ccc(C(C(=O)NC2CCCC2)N2CCCCC2)cc1` (centres unmarked), -9.12%.
`Cl.O=C([C@@H]1Cc2ccccc2CN1)N1CCN(Cc2ccccc2)CC1`: the “hERG current change (%, negative = inhibition) at 10uM” value is -31.7%.
Regarding `CCOc1ccc(NCc2cccn2-c2nnc(N3CCC(C(=O)NCCCN4CC(C)CC(C)C4)CC3)s2)cc1` (centres unmarked), the “hERG current change (%, negative = inhibition) at 10uM” value was -66.2%.
As for `O=c1[nH]c2ccc(S(=O)(=O)N3CCC(Cc4ccccc4)CC3)cc2o1`, the “hERG current change (%, negative = inhibition) at 10uM” value is 13.9%.
For the compound `Fc1cc(Br)ccc1NC(=S)Nc1cccnc1`, the “hERG current change (%, negative = inhibition) at 10uM” value worked out at 0.43%.
For `CCCn1nnnc1-c1cc(Cl)cc(Cl)c1` the value was -20.9%; for `COc1ccc(N2CCC(N3CCN(C)C(CCO)C3)CC2)cc1` (centres unmarked), 10.2%.
Turning to `O=C(NC(=Nc1nc2ccccc2o1)NC(=O)c1ccccc1)c1ccccc1`, the “hERG current change (%, negative = inhibition) at 10uM” value was found to be 22.5%.
Take `CCN1C(=O)[C@H]2[C@@H](c3ccc(C)cc3)N3C(=O)N(c4cccc(Br)c4)C(=O)[C@@]3(CC(C)C)[C@H]2C1=O`: the “hERG current change (%, negative = inhibition) at 10uM” value is 1.34%.
For the compound `COc1ccc(N2CCN(C(=O)Cn3cnc4c3c(=O)n(C)c(=O)n4C)CC2)cc1`, the “hERG current change (%, negative = inhibition) at 10uM” value is given as 5.48%.
With `CCC(=O)N1CCN(c2ccccc2NC(=O)c2cccc(C)c2)CC1` the figure was -49.4%; with `COc1ccc(Br)cc1CNC(=O)CCNC(=O)Cn1ccc2ccccc2c1=O`, -13.2%; with `N#Cc1cc(C(=O)c2ccccc2O)cn(-c2ccc(Cl)cc2)c1=O`, -38.7%.
In the case of `Cc1ccc(/C(O)=C2\C(=O)C(=O)N(C)C2c2ccc(F)cc2)cc1` (centres unmarked), the “hERG current change (%, negative = inhibition) at 10uM” value came out at 21.1%.
With `O=C(O)C1[C@H]2C(=O)N(Cc3cccs3)C[C@]23C=C[C@H]1O3` (some centres unmarked), the “hERG current change (%, negative = inhibition) at 10uM” value worked out at 4.79%.
For `CCCN(CCC)CC(O)COc1ccc([N+](=O)[O-])cc1` (centres unmarked) the value was -77.1%.
For `Cn1nc(C(F)(F)F)cc1C(=O)Nc1ccc(-c2ccno2)cc1`, the “hERG current change (%, negative = inhibition) at 10uM” value turned out to be 16.8%.
Consider `CCNc1nc(N)nc(Oc2ccc(OCCOc3ccccc3)nn2)n1`, for which the “hERG current change (%, negative = inhibition) at 10uM” value is given as -2.96%.
Regarding `CS(=O)(=O)c1ccc(Cl)c(NC(=O)CSc2n[nH]c(-c3cccs3)n2)c1`, the “hERG current change (%, negative = inhibition) at 10uM” value is -18.9%.
For the compound `CCOC(=O)CNC(=O)CN1C(=O)CC(c2ccccc2)S(=O)(=O)c2ccccc21` (centres unmarked), the “hERG current change (%, negative = inhibition) at 10uM” value is listed as -8.24%.
Regarding `COC(=O)NCC(c1cccnc1)N1CCOCC1` (centres unmarked), the “hERG current change (%, negative = inhibition) at 10uM” value was 3.17%.
As for `Oc1ccc(N=Cc2cc(Br)c(N3CCOCC3)o2)cc1`, the “hERG current change (%, negative = inhibition) at 10uM” value is reported as -4.21%.
As to `Cc1cc(SC#N)cc(C)c1NC(=O)CCl`, the “hERG current change (%, negative = inhibition) at 10uM” value turned out to be 10.5%.
Take `C=CCn1c(SC(C)C(=O)Nc2ccc(Cl)cn2)nnc1C1CC1` (centres unmarked): the “hERG current change (%, negative = inhibition) at 10uM” value is -32.6%.
With `COC(=O)c1ccc(OC(=O)CS(=O)c2ccccc2[N+](=O)[O-])cc1` (centres unmarked) the figure was 31%; with `Cc1ccc(C2=NS(=O)(=O)N(C)C(C(=O)NC3CCCCC3)=C2)cc1`, 16.6%.
With `COc1ccc(S(=O)(=O)N2CCOC23CCN(C(=O)c2ccccc2OC)CC3)cc1` the figure was -19.8%; with `CC(C)CCNC(=O)CSc1nnc(-c2ccc(S(=O)(=O)N3CCCC3)cc2)n1C`, 29.5%.
With `Cc1ccc(N(Cc2cc3ccc(C)cc3[nH]c2=O)C(=O)c2ccco2)c(C)c1` the figure was 0.0198%.
On to `Cn1c(SCC(=O)N/N=C/c2ccc([N+](=O)[O-])s2)nnc1-c1ccccc1`, for which the “hERG current change (%, negative = inhibition) at 10uM” value is -32.4%.
`O=C(CCCOc1ccccc1)Nc1nc2ccccc2[nH]1`: the “hERG current change (%, negative = inhibition) at 10uM” value is reported as 3.82%.
Consider `C=CCn1c(SCc2cccc3ccccc23)nnc1-c1cccnc1`, for which the “hERG current change (%, negative = inhibition) at 10uM” value was -36.8%.
For `CCCc1cc(=O)[nH]c(SCC(N)=O)n1` the value was -7.67%; for `Cc1cc(C)c(NC(=O)COc2ccc(-n3cnnn3)cc2)c(C)c1`, -30.1%.
On to `CCN(CC(=O)Nc1ccccc1OC)CC(=O)Nc1sccc1C#N`, for which the “hERG current change (%, negative = inhibition) at 10uM” value is -9.33%.
With `CCN1C(=O)c2ccccc2Sc2ccc(C(=O)NC(C)C)cc21`, the “hERG current change (%, negative = inhibition) at 10uM” value is reported as -0.837%.
As to `Cc1ccc(/C=C/C(=O)Nc2ccc(N(C)C)cc2)o1`, the “hERG current change (%, negative = inhibition) at 10uM” value was -14.9%.
On to `O=C(COC(=O)c1cccc(OC(F)F)c1)NC(=O)NC1CCCCC1`, for which the “hERG current change (%, negative = inhibition) at 10uM” value turned out to be 11.1%.
For `Cc1cccc(C(C)C)c1NC(=O)COC(=O)c1cccc(S(=O)(=O)N2CCc3ccccc3C2)c1`, the “hERG current change (%, negative = inhibition) at 10uM” value is given as 5.41%.
Turning to `Cc1sc2nc(CSc3ccccc3)nc(NCCN(C)C)c2c1C`, the “hERG current change (%, negative = inhibition) at 10uM” value was -72.2%.
